# Data reported in the RNAGym collection of RNA variant scans (doi:10.7554/elife.90254).
# The source gives no read counts; variants with many changes may rest on few reads.
# B1: LINE1-full (parent)
# chain: UACGUAGGUGGUUUUCCCCUGAUAGUGCUAAGGGGGCCUGGAAGUUUGGACUGGGCAGAGCUCAACACAGCGUGGCAAAGUGGCUGUGGCUAGACUGCCUCUCUGGAUUCCUCGUCACUCAGCAGGGCAUCUCUGAGAGAAAUGCC
# Variants of: B1
# Assay: self-cleavage, relative activity (ratio to wild type); higher = more cleavage; in vitro, sequencing; the parent is a self-cleaving ribozyme
row,Variant,self-cleavage
1,U14C A42G G75A U112A,0.48
2,U13C U20C G33C G86A U109C G144U,0.07
3,U14C A24G U29C G72A G82A,0.72
4,U13C C37U G126U,1.15
5,U13C U14C U130C,1.46
6,U14C A31C U39C G72A,1.68
7,U14A G25A C103U G126A,1.26
8,U14A A43G A64C,0.35
9,U13C U26C U45A U109A,0.64
10,U14A A59C U62C A142U,0
11,U13C U20C A107U,1.4
12,U14A U85A U102C,0.15
13,U13C U26C U134C,0.79
14,U14A C17U C38U A43G A78G C84U,0.17
15,U13C G33A U46C U100C,0
16,U13C U45C U119A,0.38
17,U13C U26C U47C A50G A64U,0.4
18,U13C U26G U62C U108C,0.12
19,U14A A77U U100C,1.41
20,U13G U20G A50U,0.68
21,U13C U39A U87C A121G,0.33
22,U14A U26C U115C A138U,0.88
23,U14A U96C A107U U115C,0.26
24,U13C U119C A138G,2

row,Variant,self-cleavage
1,U13C U14C U15C A24U G89A,0
2,U13C U62C U108C,0.11
3,U14C A22G A141G,1.1
4,U13C U62C U104C U134G,0
5,U13C U87G U130C A138G,0.42
6,U14C A22G G36A A67G,0.81
7,U13C U15A A69U U112A C128U,0
8,U13C U73C U87C,0
9,U13C U39A U47C U143C,1.37
10,U13C U52A U87C A142G,0.57
11,U13C C28G A64G,0.35
12,U13C U23C A129G A142G,1.69
13,U14C A31U A138G,0.94
14,U14C A42G U102C,0
15,U13C U23G U39A U91A,0.71
16,U13C G40A U47C A65G A77G,0.14
17,U13C U23C A78G A140G,1.25
18,U14A C63A U81C,0.01
19,U13C U14C U39A U62C U112C A138G,0
20,U14A A59G A64G A140G,0.16
21,U14A A92C C113U,0.13
22,U13C U91C A129U,0.86
23,U14A U20C C37G A107G U112C,2.11
24,U13C U26C A94G,0.26

row,Variant,self-cleavage
1,U13C U47A G58A U87A,0.01
2,U13G A22U A42G A107G A141G,0.66
3,U13C C71U A121G,0.75
4,U13C U85A A92G A124G G126A,0.08
5,U13G U109C U130C,0
6,U13C U112C A124G A142G,0.77
7,U14A U26A U52C G125A A140C,0.18
8,U14A A30U U46A U112C,0.86
9,U14A U96A G105A,0.04
10,U14A G36C A43G U47C A59G U62C A121U A141G,1.1
11,U13C U132C A140G,1.08
12,U13C G70A A142G,0.11
13,U13C U62A A69G,0.21
14,U13C U45C A50U,0.78
15,U14A A121G A136G A142G,1.15
16,U13C U29C U91C U96C,0.77
17,U13G U14C U20C U46C A79G,0
18,U14A A50G A57G,0.98
19,U14C A22G C90A,0.04
20,U13C U46C G144A,1.94
21,U13C U52C A94G G114A,0.34
22,U13G G83U C99A,0.1
23,U13C U29C U102A,1.36
24,U13C U115A A129G,0.96

row,Variant,self-cleavage
1,U13C G21A U73C,1.23
2,U13C U47A A65U U91C,0
3,U14C A31U G36A,0.61
4,U13C U46C U108A U109C G126A,1.29
5,U13C U112A G122A,1
6,U13G A57G U108C,0.68
7,U14C A22U A77G,1.27
8,U13C U29C U143C,0.69
9,U13G C37U U81C U143C,0.79
10,U13C U39C U132C,1.15
11,U13C U62C A77U C120A,0.05
12,U13C U26A A77U,0.87
13,U13C U20C A22G G139A,0.61
14,U14A C71U G83U U102A,0.08
15,U13C U46C U96C,0.08
16,U13C U20C U47C,1.03
17,U13C U14C U73A,1.31
18,U13C G34A A141G,1.16
19,U13C U100C A107U,2
20,U13C U26C U45C,1.15
21,U14C A22U U47G U102A,1.25
22,U13C U39C G54A A59U A138G,0.81
23,U14A A43G A92G,0.09
24,U13C U47A A57G U134C,1.25

row,Variant,self-cleavage
1,U14A U47C A67G A121U,0.77
2,U13C U96C A136G,0.23
3,U13C C63U U104A G127A A142G,0.18
4,U14A C17U A24U U112A,0.62
5,U13C G122A A129G,0.98
6,U13C U62C U130C,0
7,U14C A22G C84G U119C,0.44
8,U13C U26C A140G,1.6
9,U14A A79G U130C,1.28
10,U13C U26C G82A,1.47
11,U14C A30U A59G A65C U134A,0
12,U13C G54A A117U C123U,0.47
13,U13C U15C U102C,0.21
14,U13C U26C U46C,1.7
15,U13C C28U U29A,1.41
16,U13G G89U U132A U134A,0.12
17,U13C U96C A107G,0.86
18,U13C U14C G49A U73A A78G A124U,0.36
19,U13C U14C U85A U108C G126A,0.25
20,U13C U15C G32A A138G,2.33
21,U13C G21A U85C,0.27
22,U13C U14C A31G U104C,1.84
23,U13C U39A G139A,0.53
24,U13C U47C A141G,1.51

row,Variant,self-cleavage
1,U13C G53A A69G U115C A121U,0.11
2,U13C U73A A94G,0.41
3,U14A U85A G86U A94G,0.08
4,U14C A30G A124G,0.84
5,U14A U73C U130C,0.34
6,U14C A22G A43G U73A,1.26
7,U13C U52C A121U,1.65
8,U14A U46A U85G U108C A140G,0.19
9,U13C G54A C84U,0.01
10,U13C U14C U62C A117G,0
11,U13C U102C U115C U132A,0
12,U13C G53A A79G A140G,0.96
13,U14C A22G U62C,0.21
14,U13G U115A A141G,1.42
15,U13C U45A A121G G125U U130A,1.71
16,U13C U62A A67U A69G U112A,0.13
17,U14A A92G A117G,0
18,U14C A42U A94G C116U U132C,0.29
19,U13C U14C G48A U62G C133U,0.15
20,U13C C37A A94G U115C,0
21,U13C U45C A64U C116U,0.29
22,U13C U23C U39C A129G,0
23,U13C C95U A107G,0.1
24,U13C U73G A140G,0

row,Variant,self-cleavage
1,U13C U62C A78C U119A A140G,0.79
2,U13C C51A G126A C145A,1.38
3,U13C U39A U112C,0.76
4,U13C U104C U130C A140G,1.41
5,U13C U14G C66A U134C,0.37
6,U13C G40A U104C A136G,1.55
7,U13C U47A U119C A136G U143C,1.37
8,U14C A24G A138G,1
9,U14A U73G U130C A138G,1.65
10,U13C U87A A142G,0.22
11,U13C U29G U73C U81A A92U A107U C131U,1.31
12,U13C G21A U39A G74U A124G U143A,0.49
13,U13C G105A U143C,1.05
14,U14C A31C A59U,0.84
15,U13C U26C G54U U62C U143C,0.13
16,U13C U109A U112C,1.14
17,U14A U52A A57G,1.55
18,U13C G75A U81C,0.95
19,U13G A30U A107G,0.77
20,U14C A24G C63U A140G A141G,0.51
21,U13C U87C G122A,0.18
22,U14C A42G A138U,1.97
23,U13C G75A A78G A117U,0.68
